25 compounds from PubChem BioAssay AID463173 (ICCB-Longwood Screening Facility, Harvard Medical School, 2010) can be followed below.

Hit rate of the full screen: of about 52,000 compounds, about 1,700 (3.3%) were called active. No stated cut-off is given here; in the data, active means survival mostly below about 52% (no sharp cut-off); inactive means mostly above about 56%. The list shows a part of the results.

The assay relates to Wild type. The experiment in a line: growth inhibition of S. aureus wild type versus tarO mutant, primary screen, teichoic acid synthesis inhibitors, RN4220, OD600 (AID 463173). The following applies: S. aureus RN4220 wild type/DeltatarO growth, OD600, 18 h, active compounds read low, screened at 18.75 µg/mL (by protocol).
For `Cc1cc(=O)n(Cc2c(F)cccc2Cl)c2c1c(C)nn2C`, the survival was inactive: 71%.

Consider `COc1ccc(CCNC(=O)Cn2c(-c3ccc(F)cc3)cc(C(C)=O)c2C)cc1OC`, for which the survival was inactive: 54%.

Regarding `Cc1ccc(C)c(OC(=O)CSc2nnc(-c3cccs3)o2)c1`, the survival is inactive: 82%.

For the compound `COc1ccc2c(c1)CC(C(=O)NCCc1ccc(S(N)(=O)=O)cc1)CO2` (stereo not given), the survival was inactive: 71%.

Consider `COc1cc2ccccc2cc1C(=O)N1CCN(c2nc3c(F)cc(F)cc3s2)CC1`, for which the survival is inactive: 121%.

Take `CCCC(=O)Nc1cc(-c2nnc3c4ccccc4c(C)nn23)ccc1C`: the survival is inactive: 72%.

As for `COc1ccc(-n2c(=O)c3c(c4cc(OC)ccc4n3C)n(CC(=O)N3CCCC3)c2=O)cc1`, the survival is inactive: 135%.

On to `COc1ccc(N2CCN(CCCNC(=O)c3ccc4nc(Cc5ccccc5)oc4c3)CC2)cc1`, for which the survival was inactive: 74%.

Consider `CCOc1ccc(CNC(=O)C2CCCN(c3nn4cc(-c5ccc(F)cc5)nc4s3)C2)cc1` (stereo not given), for which the survival is inactive: 76%.

Turning to `Cc1cc(C)cc(NC(=O)c2cccc(C(=O)Nc3cc(C)cc(C)c3)c2)c1`, the survival was inactive: 143%.

`Cc1ccc(NC(=O)C(C)Sc2nc3c(c(=O)[nH]2)CCCC3)cc1Cl` (stereo not given): the survival is inactive: 62%.

For the compound `CSc1cccc(NC(=O)CN2C(=O)CCc3cc(S(=O)(=O)N4CCCCC4)ccc32)c1`, the survival was inactive: 49%.

As for `CCc1ccc(NC(=O)CCCc2nnc3n(CCCOC)c(=O)c4sccc4n23)cc1`, the survival was inactive: 98%.

`CCOc1ccccc1NC(=O)CSc1ccc2nc(-c3ccccc3)cn2n1`: the survival was inactive: 71%.

Take `O=C(COc1ccccc1Cl)N(Cc1cccc(F)c1)C1CCS(=O)(=O)C1` (stereo not given): the survival was inactive: 82%.

With `CCOc1ccc(/C=N/n2nnnc2N)cc1OCC`, the survival was inactive: 106%.

With `CCc1ccc2oc(-c3ccc(NC(=O)c4cccc(Cl)c4Cl)cc3)nc2c1`, the survival is inactive: 81%.

For `O=C(Cn1cnc2c(nc3n2CCCCC3)c1=O)Nc1cccc(C(F)(F)F)c1`, the survival is inactive: 89%.

As to `CCOc1ccc(/C=C/c2nc(C#N)c(NCCCN(C)C)o2)cc1`, the survival was inactive: 87%.

Turning to `COC(=O)c1ccccc1NC(=O)Cn1c(=O)n(CCCC(=O)NCc2ccccc2Cl)c(=O)c2ccccc21`, the survival is inactive: 97%.

Regarding `Cc1ccc(NC(=O)c2c(C)nn(-c3ccccc3)c2-n2cccc2)c(Cl)c1`, the survival was inactive: 78%.

As for `Cc1ccc(Cc2nc3ccccc3nc2SCC(=O)NCc2ccccc2Cl)cc1`, the survival is inactive: 128%.

Regarding `CCOC(=O)c1c(NC(=O)COc2ccc(C(C)(C)C)cc2)sc2c1CCCC2`, the survival is inactive: 69%.

Turning to `CCc1cccc(CC)c1NC(=O)Cn1nnc2sc3c(c2c1=O)CCCC3`, the survival was inactive: 143%.

For the compound `Cc1ccc(N2C(=O)CS(=O)(=O)C23C(=O)N(Cc2ccc(Cl)cc2)c2ccccc23)cc1C` (stereo not given), the survival is inactive: 68%.
